Assay results from the supplement of paper PMC8728848.
This is one part of the list.

Columns and labels:
Experiment in all cases: glycan array binding signal (z-score within array); higher = stronger binding
Settings in all cases: glycan notation: IUPAC condensed, linker removed
[1] = target: GlcNAc(a1-6)Gal(b1-4)GlcNAc
In short: (§1)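 Glycan array data were curated from 3228 arrays in the Consortium for Functional Glycomics database and kept only where the protein sequence was available. Glycan names were converted to IUPAC-condensed notation, and columns mapping to the same glycan were averaged. The binding signal is a within-array Z-score, averaged across arrays of the same protein sequence at different concentrations or buffers and across linkers. Negative Z-scores can be read as non-binding.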

[2] = target: GlcNAc(b1-2)Gal(b1-3)GalNAc
In short: as §1

[3] = target: GlcNAc(b1-2)Man(a1-3)[GlcNAc(b1-2)Man(a1-6)]Man(b1-4)GlcNAc(b1-4)GlcNAc
In short: as §1

[4] = target: GlcNAc(b1-2)Man(a1-3)[GlcNAc(b1-2)Man(a1-6)]Man(b1-4)GlcNAc(b1-4)[Fuc(a1-6)]GlcNAc
In short: as §1

[5] = target: GlcNAc(b1-2)Man(a1-3)[GlcNAc(b1-4)][GlcNAc(b1-2)Man(a1-6)]Man(b1-4)GlcNAc(b1-4)GlcNAc
In short: as §1

[6] = target: GlcNAc(b1-2)Man(a1-3)[GlcNAc(b1-4)][GlcNAc(b1-2)Man(a1-6)]Man(b1-4)GlcNAc(b1-4)[Fuc(a1-6)]GlcNAc
In short: as §1

[7] = target: GlcNAc(b1-2)[GlcNAc(b1-4)]Man(a1-3)[GlcNAc(b1-2)Man(a1-6)]Man(b1-4)GlcNAc(b1-4)GlcNAc
In short: as §1

[8] = target: GlcNAc(b1-2)[GlcNAc(b1-4)]Man(a1-3)[GlcNAc(b1-4)][GlcNAc(b1-2)Man(a1-6)]Man(b1-4)GlcNAc(b1-4)GlcNAc
In short: as §1

[9] = target: GlcNAc(b1-2)[GlcNAc(b1-4)]Man(a1-3)[GlcNAc(b1-4)][GlcNAc(b1-2)[GlcNAc(b1-6)]Man(a1-6)]Man(b1-4)GlcNAc(b1-4)GlcNAc
In short: as §1

[10] = target: GlcNAc(b1-2)[GlcNAc(b1-4)]Man(a1-3)[GlcNAc(b1-4)][GlcNAc(b1-2)[GlcNAc(b1-6)]Man(a1-6)]Man(b1-4)GlcNAc(b1-4)[Fuc(a1-6)]GlcNAc
In short: as §1

[11] = target: GlcNAc(b1-2)[GlcNAc(b1-6)]Man(a1-6)[GlcNAc(b1-2)Man(a1-3)]Man(b1-4)GlcNAc(b1-4)GlcNAc
In short: as §1

[12] = target: GlcNAc(b1-2)[GlcNAc(b1-6)]Man(a1-6)[GlcNAc(b1-2)Man(a1-3)]Man(b1-4)GlcNAc(b1-4)[Fuc(a1-6)]GlcNAc
In short: as §1

[13] = target: GlcNAc(b1-2)[GlcNAc(b1-6)]Man(a1-6)[GlcNAc(b1-4)][GlcNAc(b1-2)Man(a1-3)]Man(b1-4)GlcNAc(b1-4)GlcNAc
In short: as §1

[14] = target: GlcNAc(b1-3)Fuc
In short: as §1

[15] = target: GlcNAc(b1-3)Gal
In short: as §1

[16] = target: GlcNAc(b1-3)Gal(b1-3)GalNAc
In short: as §1

[17] = target: GlcNAc(b1-3)Gal(b1-4)Glc
In short: as §1

[18] = target: GlcNAc(b1-3)Gal(b1-4)GlcNAc
In short: as §1

[19] = target: GlcNAc(b1-3)Gal(b1-4)GlcNAc(b1-2)Man(a1-3)[GlcNAc(b1-3)Gal(b1-4)GlcNAc(b1-2)Man(a1-6)]Man(b1-4)GlcNAc(b1-4)GlcNAc
In short: as §1

[20] = target: GlcNAc(b1-3)Gal(b1-4)GlcNAc(b1-2)Man(a1-3)[GlcNAc(b1-3)Gal(b1-4)GlcNAc(b1-2)Man(a1-6)]Man(b1-4)GlcNAc(b1-4)[Fuc(a1-6)]GlcNAc
In short: as §1

[21] = target: GlcNAc(b1-3)Gal(b1-4)GlcNAc(b1-2)[GlcNAc(b1-3)Gal(b1-4)GlcNAc(b1-6)]Man(a1-6)[GlcNAc(b1-3)Gal(b1-4)GlcNAc(b1-2)Man(a1-3)]Man(b1-4)GlcNAc(b1-4)GlcNAc
In short: as §1

[22] = target: GlcNAc(b1-3)Gal(b1-4)GlcNAc(b1-3)Gal(b1-4)GlcNAc
In short: as §1

[23] = target: GlcNAc(b1-3)Gal(b1-4)GlcNAc(b1-3)Gal(b1-4)GlcNAc(b1-2)Man(a1-3)[GlcNAc(b1-3)Gal(b1-4)GlcNAc(b1-3)Gal(b1-4)GlcNAc(b1-2)Man(a1-6)]Man(b1-4)GlcNAc(b1-4)GlcNAc
In short: as §1

[24] = target: GlcNAc(b1-3)Gal(b1-4)GlcNAc(b1-3)Gal(b1-4)GlcNAc(b1-2)Man(a1-3)[GlcNAc(b1-3)Gal(b1-4)GlcNAc(b1-3)Gal(b1-4)GlcNAc(b1-2)Man(a1-6)]Man(b1-4)GlcNAc(b1-4)[Fuc(a1-6)]GlcNAc
In short: as §1

[25] = target: GlcNAc(b1-3)Gal(b1-4)GlcNAc(b1-3)Gal(b1-4)GlcNAc(b1-2)[GlcNAc(b1-3)Gal(b1-4)GlcNAc(b1-3)Gal(b1-4)GlcNAc(b1-6)]Man(a1-6)[GlcNAc(b1-3)Gal(b1-4)GlcNAc(b1-3)Gal(b1-4)GlcNAc(b1-2)Man(a1-3)]Man(b1-4)GlcNAc(b1-4)[Fuc(a1-6)]GlcNAc
In short: as §1

[26] = target: GlcNAc(b1-3)Gal(b1-4)GlcNAc(b1-3)Gal(b1-4)GlcNAc(b1-3)Gal(b1-4)GlcNAc(b1-2)Man(a1-3)[GlcNAc(b1-3)Gal(b1-4)GlcNAc(b1-3)Gal(b1-4)GlcNAc(b1-3)Gal(b1-4)GlcNAc(b1-2)Man(a1-6)]Man(b1-4)GlcNAc(b1-4)GlcNAc
In short: as §1

[27] = target: GlcNAc(b1-3)Gal(b1-4)GlcNAc(b1-3)Gal(b1-4)GlcNAc(b1-3)Gal(b1-4)GlcNAc(b1-2)Man(a1-3)[GlcNAc(b1-3)Gal(b1-4)GlcNAc(b1-3)Gal(b1-4)GlcNAc(b1-3)Gal(b1-4)GlcNAc(b1-2)Man(a1-6)]Man(b1-4)GlcNAc(b1-4)[Fuc(a1-6)]GlcNAc
In short: as §1

[28] = target: GlcNAc(b1-3)Gal(b1-4)GlcNAc(b1-3)Gal(b1-4)GlcNAc(b1-3)Gal(b1-4)GlcNAc(b1-2)[GlcNAc(b1-3)Gal(b1-4)GlcNAc(b1-3)Gal(b1-4)GlcNAc(b1-3)Gal(b1-4)GlcNAc(b1-6)]Man(a1-6)[GlcNAc(b1-3)Gal(b1-4)GlcNAc(b1-3)Gal(b1-4)GlcNAc(b1-3)Gal(b1-4)GlcNAc(b1-2)Man(a1-3)]Man(b1-4)GlcNAc(b1-4)[Fuc(a1-6)]GlcNAc
In short: as §1

[29] = target: GlcNAc(b1-3)Gal(b1-4)GlcNAc(b1-3)Gal(b1-4)GlcNAc(b1-3)Gal(b1-4)GlcNAc(b1-3)Gal(b1-4)GlcNAc(b1-2)Man(a1-3)[GlcNAc(b1-3)Gal(b1-4)GlcNAc(b1-3)Gal(b1-4)GlcNAc(b1-3)Gal(b1-4)GlcNAc(b1-3)Gal(b1-4)GlcNAc(b1-2)Man(a1-6)]Man(b1-4)GlcNAc(b1-4)GlcNAc
In short: as §1

[30] = target: GlcNAc(b1-3)Gal(b1-4)GlcNAc(b1-3)Gal(b1-4)GlcNAc(b1-3)Gal(b1-4)GlcNAc(b1-3)Gal(b1-4)GlcNAc(b1-2)Man(a1-3)[GlcNAc(b1-3)Gal(b1-4)GlcNAc(b1-3)Gal(b1-4)GlcNAc(b1-3)Gal(b1-4)GlcNAc(b1-3)Gal(b1-4)GlcNAc(b1-2)Man(a1-6)]Man(b1-4)GlcNAc(b1-4)[Fuc(a1-6)]GlcNAc
In short: as §1

B1: CC1G-10077 (Coprinopsis cinerea), A8NDT7 (protein)
chain: MALNEGVYWIRNSRFTNKVLDLDAANVAKGTSILDFNEHGTFNENHNQLWIVERFQSRDTYLIRSVHSNLVLDLSQGLSANGTPILCWTQHGGTNQQWRIEWVKDDNKTPLYRIVSVATGTAISHNEDDSSAYTVAWSVDDGPKQLWSFDPFVTPLLYRLRVKSTSRVLDLAAASADNGTLALAWEQHTAITKRNQLWWLPYRSGAEEYTIQCLETSTVADLSGGNSGNGTPIYGWQSHGGRNQQWKFEPTSDSGDYYHIKNVEGGSVMDAYMNDSQKRVGGWSNNGGDNQKWLLDPLPSPGPGWVLIQNGGTGKFLCSTPSGDIGTADGPETVYDYSVQWRFIQREYTGVYHVVNRATGAYLRQIGTSMPSIGLAEENDDELKDWWMLETYDNSEIGLASIISRWTGNVLDHYGGVSVQALDNNTENSYRSWAIIPARDWLTSFSLVNGQGGLCLAAQYAREETRLSTTANVNDFHAQWVFRKPSGSSGYTIQNKYNNHYVGGTSARWELVVCCNKYFGIRNTSTQKYLAIEDGQVTFQDQDMTDRKQCWELCSGRATDTSGNDYDLIYMDDDLLEVMIPWVGDKQGDLKHYIEKRATKKPPKDKGGWQLPAAGLIKKPKFNDIRQLLQELIEQWEWDVVNEEREQIQTLVSIDEAEARRLLGRRPHPDIVAAYQRSRSSTLFRIDRQGYFNIAGDRYVNIQGQYGDDSYFHIALPVGVRFGREQIRRFLRDSLDRSTSVTITPTTCKPPSGGPDYNRDPDSDGDNSWIKWTIAVVGTSAIKHSEL
For B1, the “glycan array binding signal (z-score)” value [1] was 2.9, the “glycan array binding signal (z-score)” value [2] was -0.434 and the “glycan array binding signal (z-score)” value [3] was -0.061. For the same binder, the “glycan array binding signal (z-score)” value [4] was -0.37, the “glycan array binding signal (z-score)” value [5] was -0.448 and the “glycan array binding signal (z-score)” value [6] was -0.482. The “glycan array binding signal (z-score)” value [7] was -0.015, the “glycan array binding signal (z-score)” value [8] was -0.477 and the “glycan array binding signal (z-score)” value [9] was -0.353. For the same binder, the “glycan array binding signal (z-score)” value [10] was -0.263, the “glycan array binding signal (z-score)” value [11] was 0.01 and the “glycan array binding signal (z-score)” value [12] was -0.057. The “glycan array binding signal (z-score)” value [13] was -0.388, the “glycan array binding signal (z-score)” value [14] was -0.435 and the “glycan array binding signal (z-score)” value [15] was -0.416. For the same binder, the “glycan array binding signal (z-score)” value [16] was -0.467, the “glycan array binding signal (z-score)” value [17] was -0.371 and the “glycan array binding signal (z-score)” value [18] was -0.42. For the same binder, the “glycan array binding signal (z-score)” value [19] was -0.222, the “glycan array binding signal (z-score)” value [20] was -0.201 and the “glycan array binding signal (z-score)” value [21] was -0.03. The “glycan array binding signal (z-score)” value [22] was -0.107, the “glycan array binding signal (z-score)” value [23] was -0.335 and the “glycan array binding signal (z-score)” value [24] was -0.198. The “glycan array binding signal (z-score)” value [25] was -0.106, the “glycan array binding signal (z-score)” value [26] was -0.172 and the “glycan array binding signal (z-score)” value [27] was -0.141. The “glycan array binding signal (z-score)” value [28] was -0.047, the “glycan array binding signal (z-score)” value [29] was -0.107 and the “glycan array binding signal (z-score)” value [30] was 0.905.
